Here are results for 40 compounds from the antibiotic and cytotoxicity screens of Wong et al. (2023).

SMILES strings stand for the structures. Some of the results follow.

The test system of this assay is S. aureus RN4220. The assay can be described thus: growth inhibition call (relative growth <= 0.2). Conditions: 50 µM.
Regarding `Cc1ccc(S(=O)(=O)N(C)C[C@@H]2Oc3ccc(NS(C)(=O)=O)cc3CC(=O)N([C@H](C)CO)C[C@H]2C)cc1`, the growth inhibition call was “inactive”.

`C[C@H]1CC=CC[C@H](c2cccc(Cl)c2)NC(=O)[C@@H](Cc2ccccc2)N(C)C(=O)c2ccccc2O1`: the growth inhibition call is “inactive”.

Regarding `O=C(C[C@@H]1CC[C@@H]2[C@H](COC[C@H](O)CN2C(=O)Nc2ccc(F)cc2)O1)NCCCN1CCOCC1`, the growth inhibition call is “inactive”.

As to `COc1ccc(NC(=O)N(C)C[C@@H]2Oc3ncc(C#CC(C)C)cc3C(=O)N([C@H](C)CO)C[C@H]2C)cc1`, the growth inhibition call is “inactive”.

Turning to `C[C@H]1CN([C@@H](C)CO)C(=O)CCCn2cc(nn2)CO[C@H]1CN(C)S(=O)(=O)c1ccc(Oc2ccccc2)nc1`, the growth inhibition call is “inactive”.

Regarding `C[C@@H]1CN([C@H](C)CO)C(=O)c2cc(C#CC3CCCC3)cnc2O[C@@H]1CN(C)S(=O)(=O)c1cccc(F)c1`, the growth inhibition call is “inactive”.

Turning to `C[C@H](CO)N1C[C@H](C)[C@@H](CN(C)C(=O)Nc2ccccc2)Oc2cc(Br)ccc2S1(=O)=O`, the growth inhibition call is “inactive”.

With `O=C(NCc1ccccc1)[C@@]1(CCS(=O)(=O)c2ccccc2)COC(c2ccc(OCCCO)cc2)=N1`, the growth inhibition call was “inactive”.

As to `COc1cc(/C=C/C(=O)c2c(NCCc3ccccc3)sc(-c3ccc(O)c(OC)c3)cc2=O)ccc1O`, the growth inhibition call is “inactive”.

`C=CC(=O)N1C[C@@H]2CC[C@H](O)[C@@H]2C1`: the growth inhibition call was “inactive”.

For `COc1ccc2c3c([nH]c2c1)[C@@H](CO)N(C[C@]13CCN(CCc2ccccc2)CC1)C(=O)CN1CCOCC1`, the growth inhibition call was “inactive”.

Take `C[C@H]1[C@H]([Si](C)(C)F)[C@@H](CC(=O)N(CCO)Cc2ccccc2)O[C@]12C(=O)N(c1ccccc1)c1ccccc12`: the growth inhibition call was “inactive”.

In the case of `COc1ccc2c3c([nH]c2c1)[C@H](CO)N(C[C@]13CCN(CC1)Cc1ccccc1OC)C(=O)Nc1ccc(cc1)F`, the growth inhibition call was “inactive”.

Regarding `C[C@H](CO)N1C[C@H](C)[C@H](CN(C)C(=O)C2CCCCC2)OCCCC[C@H](C)Oc2ccc(NC(=O)Nc3ccccc3)cc2C1=O`, the growth inhibition call is “inactive”.

Consider `C[C@@H]1CCCCO[C@H](CN(C)Cc2ccccc2)[C@@H](C)CN([C@@H](C)CO)C(=O)c2cc(NC(=O)C3CCCCC3)ccc2O1`, for which the growth inhibition call is “inactive”.

In the case of `C[C@@H]1CN([C@@H](C)CO)S(=O)(=O)c2ccc(/C=C/c3ccccc3)cc2O[C@@H]1CN(C)C(=O)CN1CCOCC1`, the growth inhibition call is “inactive”.

As for `COc1cc(C2c3cc4c(cc3C(OC3OC5COC(C)OC5C(O)C3O)C3COC(=O)C23)OCO4)cc(OC)c1O` (stereo not given), the growth inhibition call was “inactive”.

Regarding `Cc1ccc(S(=O)(=O)N(C)C[C@@H]2OCCCC[C@@H](C)Oc3ccc(NS(C)(=O)=O)cc3C(=O)N([C@H](C)CO)C[C@@H]2C)cc1`, the growth inhibition call was “inactive”.

Take `C[C@H]1CCCCO[C@@H](CN(C)Cc2ccccc2)[C@@H](C)CN([C@@H](C)CO)C(=O)c2cc(NC(=O)NC3CCCCC3)ccc2O1`: the growth inhibition call was “inactive”.

With `COc1ccc(NC(=O)N(C)C[C@H]2OCCCC[C@H](C)Oc3ccc(NS(=O)(=O)c4ccc(F)cc4)cc3C(=O)N([C@@H](C)CO)C[C@H]2C)cc1`, the growth inhibition call was “inactive”.

Take `C[C@H]1CN([C@@H](C)CO)C(=O)c2cc(NC(=O)Nc3cccc4ccccc34)ccc2O[C@H]1CN(C)Cc1ccc(C(=O)O)cc1`: the growth inhibition call is “inactive”.

For the compound `Cc1cc(C(=O)Nc2cccc3c2O[C@H](CN(C)Cc2ccccc2)[C@H](C)CN([C@H](C)CO)C3=O)n(C)n1`, the growth inhibition call is “inactive”.

On to `COc1ccc(NC(=O)N(C)C[C@H]2Oc3ccc(NC(=O)CCCCCC(=O)Nc4ccccc4N)cc3CC(=O)N([C@H](C)CO)C[C@@H]2C)cc1`, for which the growth inhibition call is “inactive”.

For `COc1ccc(CCNC(=O)[C@@]2(Cc3ccccc3I)c3ccccc3C(=O)N(Cc3ccccc3)[C@H]2c2ccc(COC(=O)NCCCCCC(=O)NO)cc2)cc1`, the growth inhibition call is “inactive”.

As to `C[C@@H]1CCCCO[C@@H](CN(C)Cc2ccc(C(F)(F)F)cc2)[C@@H](C)CN([C@@H](C)CO)C(=O)c2cc(NS(=O)(=O)c3cccs3)ccc2O1`, the growth inhibition call is “inactive”.

For the compound `C=CCNC(=O)[C@H]1[C@@H]2C(=O)O[C@@H](c3ccccc3)[C@@H](c3ccccc3)N2[C@@H](c2ccccc2OCCO)[C@]12C(=O)Nc1ccc(C#CC3=CCCCC3)cc12`, the growth inhibition call was “inactive”.

Consider `COc1ccc(NC(=O)Nc2ccc3c(c2)C(=O)N([C@@H](C)CO)C[C@H](C)[C@@H](CN(C)S(=O)(=O)c2ccc(Cl)cc2)OCCCC[C@@H](C)O3)cc1`, for which the growth inhibition call was “inactive”.

As to `CO[C@@H]1CN(C)C(=O)c2cc(NC(=O)C3CCOCC3)ccc2OC[C@@H](C)N(C(=O)C2CCOCC2)C[C@H]1C`, the growth inhibition call is “inactive”.

`CC(=O)OCC(=O)C1(O)CCC2C3CCC4=CC(=O)CCC4(C)C3(F)C(O)CC21C` (stereo not given): the growth inhibition call is “inactive”.

As to `CCOC(=O)c1cc2c(c(-c3cccc(Br)c3)n1)[C@@H](CCOC)N([S@](=O)C(C)(C)C)C2`, the growth inhibition call was “inactive”.

For `COc1ccc(NC(=O)Nc2ccc3c(c2)C(=O)N([C@@H](C)CO)C[C@@H](C)[C@H](CN(C)Cc2ccc(C(F)(F)F)cc2)O3)cc1`, the growth inhibition call was “inactive”.

Consider `Cc1noc(C)c1S(=O)(=O)Nc1ccc2c(c1)C(=O)N([C@@H](C)CO)C[C@H](C)[C@H](CN(C)S(C)(=O)=O)OCCCC[C@@H](C)O2`, for which the growth inhibition call is “inactive”.

For `CC(C)NC(=O)N[C@@H]1C=C[C@@H](CC(=O)NCCN2CCCC2)O[C@@H]1CO`, the growth inhibition call is “inactive”.

Consider `O=C(N[C@H]1CC[C@@H](CCn2cc(C3(O)CCCC3)nn2)O[C@H]1CO)C1CCOCC1`, for which the growth inhibition call was “inactive”.

Consider `CO[C@H]1CN(C)C(=O)c2ccc(NS(=O)(=O)CC(F)(F)F)cc2OC[C@@H](C)N(Cc2nccs2)C[C@@H]1C`, for which the growth inhibition call is “inactive”.

Take `C[C@@H]1CN([C@H](C)CO)C(=O)c2cc(NC(=O)Nc3cccc4ccccc34)ccc2O[C@@H](C)CCCCO[C@H]1CN(C)Cc1ccncc1`: the growth inhibition call was “inactive”.

Turning to `C[C@@H]1CCCCO[C@@H](CN(C)CC2CC2)[C@@H](C)CN([C@H](C)CO)C(=O)c2cc(NC(=O)Cc3ccccc3)ccc2O1`, the growth inhibition call is “inactive”.

Consider `C[C@@H]1CN([C@@H](C)CO)S(=O)(=O)c2ccc(C#CC(C)(C)O)cc2O[C@@H]1CN(C)C(=O)C1CCCCC1`, for which the growth inhibition call is “inactive”.

As to `Cc1noc(C)c1S(=O)(=O)Nc1ccc2c(c1)CC(=O)N([C@H](C)CO)C[C@H](C)[C@@H](CN(C)C(=O)NC(C)C)O2`, the growth inhibition call was “inactive”.

Take `C[C@@H]1CN([C@H](C)CO)C(=O)c2cc(NC(=O)Nc3ccc4c(c3)OCO4)ccc2O[C@H]1CN(C)Cc1ccc(Cl)c(Cl)c1`: the growth inhibition call is “inactive”.
